From PubChem BioAssay (EPA / NIEHS)
Values joined by “and” are separate entries in the source; they are usually repeats but may differ in a detail not shown here. Equal values may be shown once. Only a part is listed here, and it is no random draw. Inconclusive results are not listed. Where a structure was tested more than once in an assay, its records may differ in their call. Active and inactive are the calls of the source. The calls were made as follows: active = hit-call score of the fitted dose curve at least 0.9, where 1 is the maximum; inconclusive = response in the unintended direction; inactive = score below 0.9.

Experiments:
[1] = biological target: Glucocorticoid receptor (Homo sapiens) (UniProt P04150); assay: NVS_NR_hGR: NovaScreen (NVS) Nuclear Receptor Binding Assay for human Glucocorticoid Receptor (GR) (AID 2283363);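 also: activity is loss of specific radioligand binding signal relative to DMSO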
How it was run: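 Cell-free radioligand binding with extracted receptor protein, read by filter-based scintillation counting 16 hours after dosing. Loss of specific signal versus DMSO baseline was scored. Primary screen ran in duplicate at 25 uM; actives were followed up in concentration series.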

[2] = biological target: human CYP19A1, CYP19A1 (gene 1588) (UniProt P11511); assay: NVS_ADME_hCYP19A1: NovaScreen (NVS) CYP450-related Enzyme Activity (ADME) Assay for human CYP19A1 (AID 2283098);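 also: potency for inhibitors seen as loss of fluorescent enzyme signal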
How it was run: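 Cell-free enzyme assay with recombinant protein and a specific fluorogenic substrate, read by fluorescence intensity 0.5 h after dosing. Primary screen ran in duplicate at 10 uM; actives were retested in concentration series. Loss of signal versus acetonitrile baseline.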

[3] = biological target: Muscarinic acetylcholine receptor M2 (Homo sapiens) (UniProt P08172); assay: NVS_GPCR_hM2: NovaScreen (NVS) G Protein-Coupled Receptor Assay for human Muscarinic, M2 Receptor (AID 2283273)
How it was run: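 Cell-free radioligand binding using membranes from CHO cells expressing the receptor; filter-based scintillation counting after 1 hour of compound exposure. Loss of specific binding relative to DMSO baseline; primary screen at 25 uM in duplicate, actives then run in concentration series.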

[4] = biological target: human Adrenergic, Alpha 2A Receptor (Adra2A), ADRA2A (gene 150) (UniProt P08913); assay: NVS_GPCR_hAdra2A: NovaScreen (NVS) G Protein-Coupled Receptor Assay for human Adrenergic, Alpha 2A Receptor (Adra2A) (AID 2283257)
How it was run: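 Radioligand filter-binding was run on HT29-derived membranes, cell-free, read by scintillation counting 1 h after dosing. Primary screening was in duplicate at 25 uM, with concentration series in follow-up. Loss of signal versus DMSO indicates displacement.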

[5] = biological target: human Androgen Receptor (AR), AR (gene 367) (UniProt P10275); assay: NVS_NR_hAR: NovaScreen (NVS) Nuclear Receptor Binding Assay for human Androgen Receptor (AR) (AID 2283332)
How it was run: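 Actives from a duplicate 25 uM single-point screen went on to concentration series. Read-out after 20 h was scintillation counting of displaced radioligand in LnCAP extract, with DMSO as baseline.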

[6] = biological target: Voltage-gated inwardly rectifying potassium channel KCNH2 (Homo sapiens) (UniProt Q12809); assay: NVS_IC_hKhERGCh: NovaScreen (NVS) Ion Channel Assay for human Potassium Channel ERG (KhERGCh) (AID 2283333)
AR (gene 367) = AR (gene 367) (UniProt P10275); assay: ACEA_AR_antagonist_80hr: ACEA Biosciences xCELLigence Real-Time Cell Analysis on Androgen Receptor Antagonism for Proliferation (AID 2283787);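 also: 22Rv1 human prostate cancer cells with growth followed by electrical impedance; hits lower the impedance growth signal relative to DMSO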
How it was run: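 Impedance readout (RT-CES), 80 h post-dose; loss-of-signal vs DMSO baseline. 22Rv1 cells in assay medium. Compounds: 8-pt 1:4 series, max 100 uM final, up to 0.5% DMSO; n = 2.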

[7] = biological target: Glucocorticoid receptor (Homo sapiens) (UniProt P04150); assay: ATG_GR_TRANS: Attagene TRANS-FACTORIAL HepG2 Assay for human Glucocorticoid Receptor (GR) (AID 2282978); conditions: HepG2 Attagene TRANS GR reporter, mRNA transcription;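 also: activators score as hits since higher reporter transcript over DMSO is fitted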
How it was run: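 HepG2 cells transiently transfected with multiplexed reporter units in which chimeric NR-GAL4 proteins drive GAL4-UAS reporters; 24 h compound exposure. Reporter mRNA measured by RT-PCR, 6-FAM labelling, HpaI digestion and capillary electrophoresis; gain-of-signal fitted versus DMSO.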

Sequence of UniProt P04150 (P04150 whole entry, looked up, the tested form may be a part): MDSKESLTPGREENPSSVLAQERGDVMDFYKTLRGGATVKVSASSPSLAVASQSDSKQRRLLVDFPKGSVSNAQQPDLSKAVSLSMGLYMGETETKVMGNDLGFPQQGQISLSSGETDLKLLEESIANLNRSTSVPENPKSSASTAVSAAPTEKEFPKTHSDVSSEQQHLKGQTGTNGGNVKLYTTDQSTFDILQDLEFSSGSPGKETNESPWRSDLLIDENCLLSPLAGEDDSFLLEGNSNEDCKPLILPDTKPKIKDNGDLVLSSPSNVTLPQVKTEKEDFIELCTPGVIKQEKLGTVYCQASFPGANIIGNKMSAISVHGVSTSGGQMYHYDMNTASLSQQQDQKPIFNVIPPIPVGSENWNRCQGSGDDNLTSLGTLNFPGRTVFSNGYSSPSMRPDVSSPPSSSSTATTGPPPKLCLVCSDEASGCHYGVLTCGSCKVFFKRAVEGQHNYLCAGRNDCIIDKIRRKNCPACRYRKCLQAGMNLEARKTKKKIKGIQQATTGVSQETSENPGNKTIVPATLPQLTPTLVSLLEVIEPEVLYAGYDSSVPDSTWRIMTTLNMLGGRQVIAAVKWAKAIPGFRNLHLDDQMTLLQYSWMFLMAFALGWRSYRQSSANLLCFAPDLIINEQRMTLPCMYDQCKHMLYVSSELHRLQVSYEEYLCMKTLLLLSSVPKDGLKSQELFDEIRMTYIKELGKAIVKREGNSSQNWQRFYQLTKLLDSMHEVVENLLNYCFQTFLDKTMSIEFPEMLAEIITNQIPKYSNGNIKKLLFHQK
Sequence of UniProt Q12809 (Q12809 whole entry, looked up): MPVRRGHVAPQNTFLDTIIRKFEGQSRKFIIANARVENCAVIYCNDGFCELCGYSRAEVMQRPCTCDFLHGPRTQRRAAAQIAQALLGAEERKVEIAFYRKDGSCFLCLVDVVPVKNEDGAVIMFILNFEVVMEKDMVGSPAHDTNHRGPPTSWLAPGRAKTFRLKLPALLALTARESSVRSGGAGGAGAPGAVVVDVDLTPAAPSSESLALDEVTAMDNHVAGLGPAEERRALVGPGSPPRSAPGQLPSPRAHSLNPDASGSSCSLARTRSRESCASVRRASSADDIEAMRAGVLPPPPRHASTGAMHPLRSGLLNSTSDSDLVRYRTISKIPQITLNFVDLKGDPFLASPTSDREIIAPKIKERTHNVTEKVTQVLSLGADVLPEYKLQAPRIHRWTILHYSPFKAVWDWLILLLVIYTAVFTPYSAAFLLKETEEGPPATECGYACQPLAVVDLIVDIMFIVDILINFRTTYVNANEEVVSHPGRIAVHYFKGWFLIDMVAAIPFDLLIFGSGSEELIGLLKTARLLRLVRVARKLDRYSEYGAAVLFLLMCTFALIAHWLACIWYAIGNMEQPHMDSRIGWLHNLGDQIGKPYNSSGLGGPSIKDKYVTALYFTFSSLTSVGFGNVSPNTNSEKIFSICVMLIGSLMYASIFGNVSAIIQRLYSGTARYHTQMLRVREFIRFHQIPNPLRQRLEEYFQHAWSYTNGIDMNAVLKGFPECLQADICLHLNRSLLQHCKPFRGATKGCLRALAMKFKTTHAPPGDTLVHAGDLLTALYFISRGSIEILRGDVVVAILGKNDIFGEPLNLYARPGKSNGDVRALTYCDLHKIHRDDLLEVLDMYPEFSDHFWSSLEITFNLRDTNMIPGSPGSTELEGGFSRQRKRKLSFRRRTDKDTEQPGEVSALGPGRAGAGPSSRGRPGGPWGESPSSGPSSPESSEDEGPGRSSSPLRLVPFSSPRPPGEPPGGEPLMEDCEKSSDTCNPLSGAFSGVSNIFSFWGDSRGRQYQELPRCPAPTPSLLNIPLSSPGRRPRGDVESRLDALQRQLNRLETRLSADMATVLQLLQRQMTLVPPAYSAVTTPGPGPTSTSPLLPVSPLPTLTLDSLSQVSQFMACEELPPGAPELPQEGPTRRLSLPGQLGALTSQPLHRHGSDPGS
Sequence of UniProt P08913 (P08913 whole entry, looked up): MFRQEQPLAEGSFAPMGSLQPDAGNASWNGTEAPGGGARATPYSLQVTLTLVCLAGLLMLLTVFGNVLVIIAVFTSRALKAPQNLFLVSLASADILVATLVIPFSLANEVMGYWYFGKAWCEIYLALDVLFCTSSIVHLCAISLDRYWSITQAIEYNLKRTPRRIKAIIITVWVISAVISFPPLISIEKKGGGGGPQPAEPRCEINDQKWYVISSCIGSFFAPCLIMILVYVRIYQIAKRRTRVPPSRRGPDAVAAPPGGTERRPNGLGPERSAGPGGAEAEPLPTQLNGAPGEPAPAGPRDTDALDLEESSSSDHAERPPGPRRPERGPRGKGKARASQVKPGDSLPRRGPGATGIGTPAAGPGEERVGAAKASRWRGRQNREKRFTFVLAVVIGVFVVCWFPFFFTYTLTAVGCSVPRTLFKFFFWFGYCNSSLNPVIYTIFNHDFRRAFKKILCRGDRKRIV
Sequence of UniProt P08172 (P08172 whole entry, looked up): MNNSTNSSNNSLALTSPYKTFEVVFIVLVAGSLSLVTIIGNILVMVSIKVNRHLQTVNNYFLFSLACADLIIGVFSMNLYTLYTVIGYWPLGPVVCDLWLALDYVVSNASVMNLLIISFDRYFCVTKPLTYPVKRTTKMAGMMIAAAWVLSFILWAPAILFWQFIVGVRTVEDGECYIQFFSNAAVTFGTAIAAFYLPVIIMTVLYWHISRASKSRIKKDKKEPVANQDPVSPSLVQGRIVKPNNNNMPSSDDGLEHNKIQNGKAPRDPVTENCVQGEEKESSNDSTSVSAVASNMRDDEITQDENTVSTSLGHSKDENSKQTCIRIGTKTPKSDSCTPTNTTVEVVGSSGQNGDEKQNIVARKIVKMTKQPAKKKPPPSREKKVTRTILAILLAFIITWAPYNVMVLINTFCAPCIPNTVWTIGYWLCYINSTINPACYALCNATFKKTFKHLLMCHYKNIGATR
Sequence of UniProt P11511 (P11511 whole entry, looked up): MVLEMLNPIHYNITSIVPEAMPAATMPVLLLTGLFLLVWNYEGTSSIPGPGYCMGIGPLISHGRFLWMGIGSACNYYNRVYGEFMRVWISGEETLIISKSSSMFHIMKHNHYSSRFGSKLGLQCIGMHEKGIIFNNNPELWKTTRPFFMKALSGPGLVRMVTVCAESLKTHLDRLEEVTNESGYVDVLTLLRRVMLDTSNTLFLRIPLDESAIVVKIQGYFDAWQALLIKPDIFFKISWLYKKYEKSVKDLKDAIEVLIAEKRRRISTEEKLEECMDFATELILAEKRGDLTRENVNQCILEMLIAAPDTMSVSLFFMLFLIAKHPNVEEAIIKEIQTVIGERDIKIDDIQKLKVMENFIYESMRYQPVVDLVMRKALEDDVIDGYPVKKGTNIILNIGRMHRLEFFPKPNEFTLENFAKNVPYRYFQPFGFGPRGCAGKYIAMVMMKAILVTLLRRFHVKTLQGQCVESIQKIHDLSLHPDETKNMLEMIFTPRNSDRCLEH

## C[C@@H]1C[C@H]2[C@@H]3CCC4=CC(=O)C=C[C@]4(C)[C@@]3(F)[C@@H](O)C[C@]2(C)[C@@]1(O)C(=O)COP(=O)(O)O
[1]
  AC50: active: 4.01 nM and active: 4.2 nM and active: 2.35 nM

## CC(C)(C#N)c1cc(Cn2cncn2)cc(C(C)(C)C#N)c1
[2]
  AC50: active: 0.724 µM

## CC(C)(C)CC(C)(C)c1ccc(OCCOCC[N+](C)(C)Cc2ccccc2)cc1
[3]
  AC50: active: 4.45 µM
[1]
  AC50: active: 4.01 µM

## CCN(CC)CCOc1ccc(C(=C(Cl)c2ccccc2)c2ccccc2)cc1
[4]
  AC50: active: 12.6 µM
[5]
  AC50: active: 0.349 µM
[6]
  AC50: active: 1.54 µM
AR (gene 367)
  AC50: active: 11.3 µM

## C[C@H]1C[C@H]2[C@@H]3CCC4=CC(=O)C=C[C@]4(C)[C@@]3(F)[C@@H](O)C[C@]2(C)[C@@]1(O)C(=O)COP(=O)(O)O
[7]
  AC50: active: 0.129 µM
